Assay results from PubChem BioAssay AID652104 (National Center for Advancing Translational Sciences (NCATS), 2013).
Among all 410,000 compounds or so, about 7,200 (1.8%) were called active. Inconclusive means that the source gave no clear call. Such entries were picked first, then a sample of the others. Calls come from the whole dose curve; as a rule, active = well fitted activation curve with a large enough effect; inconclusive = small, poorly fitted or top-dose-only effect, or another doubt; inactive = no such curve, though single readings can be large or run the other way. Potencies of inconclusive entries are left out as doubtful fits.

Assay: qHTS of TDP-43 Inhibitors; note: nearly all actives have a fitted effect of over 50% in size
Details: TDP-43 expressing yeast growth rescue, BacTiter-Glo, 24 h; series mostly up to 46.1 µM
How it was run: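 Growth rescue of TDP-43-toxic yeast measured as ATP luminescence (BacTiter-Glo). Cells grown to mid-log in raffinose, induced in galactose at OD600=0.02, exposed to compound 24 hr at 30 deg C.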
Potency is the fitted concentration of half-maximal effect; tags give direction and shape of the fitted curve.

| Structure (SMILES) | Potency |
| --- | --- |
| COCCNC(=O)c1cc2c(c(-c3cccc(-c4cc5ccccc5o4)c3)n1)[C@H](CCO)N(S(=O)C(C)(C)C)C2 (stereo partly specified) | inactive |
| CCOC(=O)c1ccc(N2C(=O)c3n[nH]c(-c4ccco4)c3C2c2cccc(F)c2)cc1 (stereo unspecified) | inconclusive [activator, partial curve, poor fit] |
| COc1ccc(NC(=S)NC(C)Cc2cccs2)cc1 (stereo unspecified) | inconclusive [activator, partial curve] |
| CCCN(CCC)c1ccc(C(O)c2nnc(-c3ccccc3)o2)cc1 (stereo unspecified) | inactive |
| COc1ccc(C(=O)c2cn(Cc3ccc(F)cc3)c3c(F)cc(F)cc3c2=O)cc1 | inconclusive [activator, partial curve] |
| CCOC(=O)c1nc(C)sc1-c1ccnn1S(=O)(=O)c1ccc(Cl)cc1Cl | inconclusive [activator, partial curve] |
| C/C(=N\NS(=O)(=O)c1ccc(Br)cc1)c1ccc(-n2ccnc2)cc1 | inactive |
| O=C(N/N=C/c1ccc(O)cc1)NC12CC3CC(CC(C3)C1)C2 | active: 11.2 µM |
| CC1Cc2ccccc2N1C(=O)CSc1nnnn1Cc1ccccc1 (stereo unspecified) | inconclusive [activator, single point] |
| CC(OC(=O)Cc1cccc(C(F)(F)F)c1)C(=O)Nc1ccc(Cl)cn1 (stereo unspecified) | inconclusive [activator, partial curve] |
| N#CCn1c(C2CCCCC2)nc2ccccc2c1=O | inconclusive [activator, full curve, poor fit] |
| Cc1[nH]n(-c2ccccc2)c(=O)c1/C=N/NC(=O)c1cccc(F)c1 | inconclusive [activator, partial curve] |
| O=C(CCN1CCCCC1)c1cccc(Cl)c1 | inactive |
| O=C(C1CCCN(S(=O)(=O)c2cccs2)C1)N1CCN(c2ccccc2F)CC1 (stereo unspecified) | inactive |
| CNc1nc(Nc2ccc(C)c(Cl)c2)c2cnn(C)c2n1 | active: 14.1 µM |
| COc1ccc(/C=N/NC(=O)c2ccoc2C)cc1COc1c(C)cccc1C | inconclusive [activator, single point] |
| O=C(NCCc1ccc(Cl)cc1)c1cc(-c2ccccn2)nc2ccccc12 | inconclusive [activator, single point] |
| Cc1cccc(C(=O)Nc2nc3c(s2)CCCC3)c1 | inconclusive [activator, single point] |
| Cc1ccc(S(=O)(=O)N(C)CCCC(=O)Nc2ccc(C)cc2C)cc1 | inconclusive [activator, partial curve] |
| COc1ccc(-c2nc(CCNC(=O)Cc3ccc(F)cc3)cs2)cc1 | inactive |
| NC(=S)N/N=C/c1ccc(-c2ccc(Cl)c(Cl)c2)o1 | active: 20 µM |
| CCOC(=O)N1CCc2c(sc3c2c(=O)n(CCc2ccccc2)c(=O)n3Cc2ccc(C)cc2C)C1 | inactive |
| COc1ccccc1OCC(=O)Nc1ccc(Cl)cc1 | inconclusive [activator, single point] |

| Structure (SMILES) | Potency |
| --- | --- |
| N=c1nc2n(cc1F)C1OC(CO)C(O)C1O2 (stereo unspecified) | inactive |
| COC(=O)c1cccc(NC(=O)c2cccs2)c1C | inconclusive [activator, single point] |
| COc1nn(CC(=O)N2N=C(C)CC2(O)C(F)(F)F)cc1[N+](=O)[O-] (stereo unspecified) | inconclusive [activator, partial curve, poor fit] |
| COc1ccc2ccccc2c1CN1CCN(Cc2ccccc2)CC1 | inactive |
| O=C(O)c1cc2c(ccc3ccccc32)[nH]1 | inconclusive [activator, single point] |
| COc1cccc(NC(=O)CCCn2c(=O)[nH]c3ccccc3c2=O)c1 | inconclusive [activator, full curve, poor fit] |
| Cc1ccc(-n2nc3c(=O)n(CC(=O)NCCc4ccc(Cl)cc4)nc(C)c3c2C)cc1 | inactive |
| CCn1c(=O)c(=O)n(CC)c2cc(N3CCCCC3)c(NC(=O)c3cccc(OC)c3)cc21 | inactive |
| CCOC(=O)c1cccc(NC(=O)N2Cc3ccccc3Oc3ncccc32)c1 | inactive |
| CCOc1cccc(NC(=O)CSc2ncc(-c3ccc(Cl)cc3)[nH]2)c1 | inconclusive [activator, full curve, poor fit] |
| C=CCSc1cc(C)nc2c(-c3ccccc3)cnn12 | inconclusive [activator, full curve, poor fit] |
| CCc1nnc2c3ccccc3nc(Nc3ccc(F)cc3C)n12 | inconclusive [activator, partial curve, poor fit] |
| Cc1nc2cc(Oc3nc(NCCN(C)C)nc4ccsc34)ccc2s1 | inactive |
| CC1(C(=O)NCc2cccs2)Cc2c(-c3ccccc3)ccnc2O1 (stereo unspecified) | inconclusive [activator, single point] |
| CCN1C(C(=O)c2ccccc2)=C(OC(=O)c2ccc(Cl)cc2)c2ccccc2S1(=O)=O | inconclusive [activator, partial curve] |
| CCOC(=O)c1sc(NNC(=O)c2ccc(F)cc2)nc1C | active: 14.1 µM |
| CCOc1ccc(Br)cc1C1C(C(=O)Nc2ccccc2OC)=C(C)Nc2nnnn21 (stereo unspecified) | inactive |
| COc1ccc(-c2cc(C(F)(F)F)nc(NCc3ccccc3)n2)cc1OC | inconclusive [activator, partial curve, poor fit] |
| CCOC(=O)C1CCN(C(=O)Cc2cccc3ccccc23)CC1 | inconclusive [activator, partial curve] |
| CCCOc1nnnn1-c1ccccc1 | inconclusive [activator, partial curve] |
| CN(C)c1nc(N/N=C/c2ccccc2O)nc(Nc2ccc(F)cc2)n1 | inconclusive [activator, single point] |
| COc1ccc(-c2cc(-n3c(C(F)(F)F)nc4ccccc43)n(CCC#N)n2)cc1 | inconclusive [activator, single point] |
| COC(=O)C1(C(=O)OC)C/C=C\CCN(S(=O)(=O)c2ccccc2[N+](=O)[O-])CC1 | inconclusive [activator, full curve, poor fit] |
